# According to the supplement of paper PMC8728848:
# Some of the results follow.
# B1: CrataBL (Crataeva tapia), C0HJA4 (protein)
# chain: AILTGVPYYILPSTSRAGFSPDNLRKNTSQLSCPLDLITQLRFPRRIGVPVIFTPQNSSLKVVPLSHNLNIHTCSDLWFCPESKIWTVKSSLTHGGSVVTTGGTFRSLGSWFRIERHGDSYKLVHCPRGSTPCRDVGIETVGGGGRRYLAPRDRPLAVRFTRASG
# Columns and labels:
# Assay in all cases: glycan array binding signal (z-score within array); higher = stronger binding
# Conditions in all cases: glycan notation: IUPAC condensed, linker removed
# [1] = target: GlcNAc(b1-3)Gal(b1-4)GlcNAc(b1-3)Gal(b1-4)GlcNAc(b1-3)Gal(b1-4)GlcNAc(b1-3)Gal(b1-4)GlcNAc(b1-2)[GlcNAc(b1-3)Gal(b1-4)GlcNAc(b1-3)Gal(b1-4)GlcNAc(b1-3)Gal(b1-4)GlcNAc(b1-3)Gal(b1-4)GlcNAc(b1-6)]Man(a1-6)[GlcNAc(b1-3)Gal(b1-4)GlcNAc(b1-3)Gal(b1-4)GlcNAc(b1-3)Gal(b1-4)GlcNAc(b1-3)Gal(b1-4)GlcNAc(b1-2)Man(a1-3)]Man(b1-4)GlcNAc(b1-4)[Fuc(a1-6)]GlcNAc
# Method in brief: (§1)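 Arrays were curated from the Consortium for Functional Glycomics database, 3228 in total, and kept only where the protein sequence was available. Binding is expressed as a within-array Z-score. This score was averaged across arrays of the same protein sequence at different concentrations or buffers and across linkers, and negative values can be read as non-binding.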
# [2] = target: GlcNAc(b1-3)Gal(b1-4)GlcNAc(b1-3)Gal(b1-4)GlcNAc(b1-3)GalNAc
# Method in brief: as §1
# [3] = target: GlcNAc(b1-3)Gal(b1-4)GlcNAc(b1-3)GalNAc
# Method in brief: as §1
# [4] = target: GlcNAc(b1-3)Gal(b1-4)GlcNAc(b1-3)[GlcNAc(b1-3)Gal(b1-4)GlcNAc(b1-3)]GalNAc
# Method in brief: as §1
# [5] = target: GlcNAc(b1-3)Gal(b1-4)GlcNAc(b1-6)[Gal(b1-3)]GalNAc
# Method in brief: as §1
# [6] = target: GlcNAc(b1-3)Gal(b1-4)GlcNAc(b1-6)[GlcNAc(b1-3)Gal(b1-3)]GalNAc
# Method in brief: as §1
# [7] = target: GlcNAc(b1-3)Gal(b1-4)GlcNAc(b1-6)[GlcNAc(b1-3)]Gal(b1-4)GlcNAc
# Method in brief: as §1
# GlcNAc(b1-3)GalNAc = target: GlcNAc(b1-3)GalNAc
# Method in brief: as §1
# GlcNAc(b1-3)Man = target: GlcNAc(b1-3)Man
# Method in brief: as §1
# [8] = target: GlcNAc(b1-3)[GlcNAc(b1-4)][GlcNAc(b1-6)]GlcNAc
# Method in brief: as §1
# [9] = target: GlcNAc(b1-3)[GlcNAc(b1-6)]Gal(b1-4)GlcNAc
# Method in brief: as §1
# [10] = target: GlcNAc(b1-3)[GlcNAc(b1-6)]GalNAc
# Method in brief: as §1
# [11] = target: GlcNAc(b1-4)Gal(b1-4)GlcNAc
# Method in brief: as §1
# GlcNAc(b1-4)GlcNAc = target: GlcNAc(b1-4)GlcNAc
# Method in brief: as §1
# [12] = target: GlcNAc(b1-4)GlcNAc(b1-4)GlcNAc
# Method in brief: as §1
# [13] = target: GlcNAc(b1-4)GlcNAc(b1-4)GlcNAc(b1-4)GlcNAc(b1-4)GlcNAc
# Method in brief: as §1
# [14] = target: GlcNAc(b1-4)GlcNAc(b1-4)GlcNAc(b1-4)GlcNAc(b1-4)GlcNAc(b1-4)GlcNAc
# Method in brief: as §1
# [15] = target: GlcNAc(b1-4)[GlcNAc(b1-6)]GalNAc
# Method in brief: as §1
# [16] = target: GlcNAc(b1-6)Gal(b1-4)GlcNAc
# Method in brief: as §1
# GlcNAc(b1-6)GalNAc = target: GlcNAc(b1-6)GalNAc
# Method in brief: as §1
# [17] = target: GlcNAc6S(b1-3)Gal(b1-4)GlcNAc
# Method in brief: as §1
# Kdn(a2-3)Gal(b1-3)GalNAc = target: Kdn(a2-3)Gal(b1-3)GalNAc
# Method in brief: as §1
# Kdn(a2-3)Gal(b1-3)GlcNAc = target: Kdn(a2-3)Gal(b1-3)GlcNAc
# Method in brief: as §1
# Kdn(a2-3)Gal(b1-4)Glc = target: Kdn(a2-3)Gal(b1-4)Glc
# Method in brief: as §1
# Kdn(a2-3)Gal(b1-4)GlcNAc = target: Kdn(a2-3)Gal(b1-4)GlcNAc
# Method in brief: as §1
# [18] = target: Kdn(a2-3)Gal(b1-4)[Fuc(a1-3)]GlcNAc
# Method in brief: as §1
# Kdn(a2-6)Gal(b1-4)GlcNAc = target: Kdn(a2-6)Gal(b1-4)GlcNAc
# Method in brief: as §1
# [19] = target: Man(a1-2)Man(a1-2)Man(a1-3)Man
# Method in brief: as §1
# [20] = target: Man(a1-2)Man(a1-2)Man(a1-6)[Man(a1-3)]Man
# Method in brief: as §1
# Man(a1-2)Man(a1-3)Man = target: Man(a1-2)Man(a1-3)Man
# Method in brief: as §1
# [21] = target: Man(a1-2)Man(a1-3)[Man(a1-2)Man(a1-6)]Man
# Method in brief: as §1
# [22] = target: Man(a1-2)Man(a1-3)[Man(a1-2)Man(a1-6)]Man(a1-6)[Man(a1-2)Man(a1-2)Man(a1-3)]Man
# Method in brief: as §1
# [23] = target: Man(a1-2)Man(a1-3)[Man(a1-2)Man(a1-6)]Man(a1-6)[Man(a1-2)Man(a1-2)Man(a1-3)]Man(b1-4)GlcNAc(b1-4)GlcNAc
# Method in brief: as §1
# [24] = target: Man(a1-2)Man(a1-3)[Man(a1-6)]Man(a1-6)[Man(a1-2)Man(a1-3)]Man(b1-4)GlcNAc(b1-4)GlcNAc
# Method in brief: as §1
# [25] = target: Man(a1-2)Man(a1-6)[Man(a1-3)]Man(a1-6)[Man(a1-2)Man(a1-2)Man(a1-3)]Man
# Method in brief: as §1
# [26] = target: Man(a1-2)Man(a1-6)[Man(a1-3)]Man(a1-6)[Man(a1-2)Man(a1-2)Man(a1-3)]Man(b1-4)GlcNAc(b1-4)GlcNAc
# Method in brief: as §1
# Man(a1-3)[Man(a1-6)]Man = target: Man(a1-3)[Man(a1-6)]Man
# Method in brief: as §1
# [27] = target: Man(a1-3)[Man(a1-6)]Man(a1-6)[Man(a1-2)Man(a1-3)]Man(b1-4)GlcNAc(b1-4)GlcNAc
# Method in brief: as §1
# [28] = target: Man(a1-3)[Man(a1-6)]Man(a1-6)[Man(a1-3)]Man
# Method in brief: as §1
# [29] = target: Man(a1-3)[Man(a1-6)]Man(a1-6)[Man(a1-3)]Man(b1-4)GlcNAc(b1-4)GlcNAc
# Method in brief: as §1
# [30] = target: Man(a1-3)[Man(a1-6)]Man(b1-4)GlcNAc(b1-4)GlcNAc
# Method in brief: as §1
# [31] = target: Man(a1-3)[Man(a1-6)]Man(b1-4)GlcNAc(b1-4)[Fuc(a1-6)]GlcNAc
# Method in brief: as §1
# Man(a1-6)Man = target: Man(a1-6)Man
# Method in brief: as §1
# Man(b1-4)GlcNAc = target: Man(b1-4)GlcNAc
# Method in brief: as §1
# MurNAc(b1-4)GlcNAc = target: MurNAc(b1-4)GlcNAc
# Method in brief: as §1
binder,measurement,setting,value
B1,glycan array binding signal (z-score),[1],0.165
same,glycan array binding signal (z-score),[2],0.072
same,glycan array binding signal (z-score),[3],0.521
same,glycan array binding signal (z-score),[4],0.704
same,glycan array binding signal (z-score),[5],-0.065
same,glycan array binding signal (z-score),[6],-0.098
same,glycan array binding signal (z-score),[7],-0.344
same,glycan array binding signal (z-score),GlcNAc(b1-3)GalNAc,-0.347
same,glycan array binding signal (z-score),GlcNAc(b1-3)Man,0.024
same,glycan array binding signal (z-score),[8],-0.373
same,glycan array binding signal (z-score),[9],-0.169
same,glycan array binding signal (z-score),[10],-0.019
same,glycan array binding signal (z-score),[11],-0.317
same,glycan array binding signal (z-score),GlcNAc(b1-4)GlcNAc,-0.114
same,glycan array binding signal (z-score),[12],-0.244
same,glycan array binding signal (z-score),[13],-0.186
same,glycan array binding signal (z-score),[14],-0.205
same,glycan array binding signal (z-score),[15],-0.434
same,glycan array binding signal (z-score),[16],-0.119
same,glycan array binding signal (z-score),GlcNAc(b1-6)GalNAc,0.02
same,glycan array binding signal (z-score),[17],-0.245
same,glycan array binding signal (z-score),Kdn(a2-3)Gal(b1-3)GalNAc,0.64
same,glycan array binding signal (z-score),Kdn(a2-3)Gal(b1-3)GlcNAc,0.693
same,glycan array binding signal (z-score),Kdn(a2-3)Gal(b1-4)Glc,0.084
same,glycan array binding signal (z-score),Kdn(a2-3)Gal(b1-4)GlcNAc,0.368
same,glycan array binding signal (z-score),[18],0.009
same,glycan array binding signal (z-score),Kdn(a2-6)Gal(b1-4)GlcNAc,0.182
same,glycan array binding signal (z-score),[19],-0.486
same,glycan array binding signal (z-score),[20],-0.266
same,glycan array binding signal (z-score),Man(a1-2)Man(a1-3)Man,-0.472
same,glycan array binding signal (z-score),[21],-0.48
same,glycan array binding signal (z-score),[22],-0.445
same,glycan array binding signal (z-score),[23],-0.037
same,glycan array binding signal (z-score),[24],-0.377
same,glycan array binding signal (z-score),[25],-0.488
same,glycan array binding signal (z-score),[26],-0.135
same,glycan array binding signal (z-score),Man(a1-3)[Man(a1-6)]Man,-0.18
same,glycan array binding signal (z-score),[27],0.179
same,glycan array binding signal (z-score),[28],-0.041
same,glycan array binding signal (z-score),[29],0.044
same,glycan array binding signal (z-score),[30],-0.504
same,glycan array binding signal (z-score),[31],-0.329
same,glycan array binding signal (z-score),Man(a1-6)Man,0.34
same,glycan array binding signal (z-score),Man(b1-4)GlcNAc,0.247
same,glycan array binding signal (z-score),MurNAc(b1-4)GlcNAc,0.056
